Data: paper PMC6919601, “Identification of Plasmodium dipeptidyl aminopeptidase allosteric inhibitors by high throughput screening” (PLoS ONE, 2019)
Values joined by “and” are separate entries in the source; they are usually repeats but may differ in a detail not shown here. Equal entries are not always repeated. In all, about 110,000 compounds went through this assay and about 230 (0.21%) showed an effect of 50% or more. This is one part of the list.

Each molecule was assayed against DPAP1 (Plasmodium falciparum, UniProt Q8IIJ9) (assay: primary screen, percent inhibition; read by cleavage of a fluorogenic dipeptide substrate; higher = more effect of the substance).
DPAP1, sequence (Q8IIJ9 whole entry, looked up): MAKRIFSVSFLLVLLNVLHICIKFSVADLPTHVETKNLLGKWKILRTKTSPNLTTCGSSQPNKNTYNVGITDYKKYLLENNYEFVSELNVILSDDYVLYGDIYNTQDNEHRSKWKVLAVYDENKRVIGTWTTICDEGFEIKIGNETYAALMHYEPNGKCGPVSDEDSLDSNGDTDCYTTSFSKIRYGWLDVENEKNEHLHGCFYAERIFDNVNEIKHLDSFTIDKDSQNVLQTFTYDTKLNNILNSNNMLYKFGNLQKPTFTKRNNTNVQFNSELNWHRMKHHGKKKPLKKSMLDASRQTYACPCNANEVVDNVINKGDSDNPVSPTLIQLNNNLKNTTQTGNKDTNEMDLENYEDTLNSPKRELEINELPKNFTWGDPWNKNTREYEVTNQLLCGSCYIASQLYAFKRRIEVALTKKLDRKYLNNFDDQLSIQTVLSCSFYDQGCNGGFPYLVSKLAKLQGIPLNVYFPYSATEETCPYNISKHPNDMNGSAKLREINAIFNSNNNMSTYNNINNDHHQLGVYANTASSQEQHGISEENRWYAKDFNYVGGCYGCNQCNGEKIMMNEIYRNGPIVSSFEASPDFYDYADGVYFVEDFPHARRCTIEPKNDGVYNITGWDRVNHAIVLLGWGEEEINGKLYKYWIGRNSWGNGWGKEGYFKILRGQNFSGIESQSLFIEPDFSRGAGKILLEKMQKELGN
Parameters: species or system P. falciparum D10 trophozoite lysates; single well
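Note: 30 min substrate incubation versus DMSO and 10 µM JCP410 controls.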

| SMILES | % Inhibition @ 10 uM |
| --- | --- |
| Cc1nn(Cc2ccccc2Cl)c(C)c1NC(=O)COc1ccc(F)cc1F | 6.03% |
| CCn1nccc1C(=O)N1CCN(C(=O)c2ccco2)CC1 | -4.76% and -4.12% |
| COc1ccc(CNC(=O)CSc2nc3ccc(C)cc3cc2C#N)cc1 | -2.64% |
| Cc1cc(C=C2C(=O)c3ccccc3C2=O)c(C)n1-c1ccc(S(N)(=O)=O)cc1 | -3.14% |
| Cc1nn(-c2ccc(F)cc2)c(-n2cccc2)c1C(=O)NC1CCC(C)CC1 (centres unmarked) | -0.252% |
| COc1ccc(C2=NN(CC(=O)NCCCN3CCCC(C)C3)C(=O)CC2)cc1 (centres unmarked) | -1.79% |
| COc1ccc(OC)c(CCNC(=O)c2cc3ccccn3n2)c1 | -0.0115% |
| CCOc1cc(CNCCc2c[nH]c3ccccc23)cc(Cl)c1OCC(N)=O | -1.52% |
| Cc1ccc2nc(C)cc(NCCO)c2c1 | 0.674% |
| C=C(C)CN(CC)Cc1cc(O)ccc1[N+](=O)[O-] | 2.41% |
| Cc1cc(C)c(C(=O)/C=C/c2ccccc2)c(O)n1 | -0.294% |
| CCc1ccccc1-n1c(C)cc(/C=C2\C(=N)N3N=C(S(C)(=O)=O)SC3=NC2=O)c1C | 0.208% |
| CCN(CC)CCN(C)C1CCc2ccccc2C1 (centres unmarked) | -1.42% |
| Cc1ccc(-c2csc(/C(C#N)=C/c3cccc(F)c3)n2)c(C)c1 | -4.21% |
| O=C(Cn1c(=O)oc2ccccc21)Nc1ccc(Br)cc1 | -6.51% |
| COCCCNC(=O)C1CC(=O)N(Cc2ccc(OC)cc2)C1 (centres unmarked) | 3.79% |
| Cc1nc(-c2cnoc2)c2cc(C)oc2n1 | -0.637% |
| COc1ccccc1OCC(=O)N(Cc1ccc(C)o1)C1CCS(=O)(=O)C1 (centres unmarked) | 8.19% |
| COc1ccc(N2C(N)=C(C#N)C(c3cc(OC)c(OC)c(OC)c3)C3=C2CC(C)(C)CC3=O)cc1 (centres unmarked) | -1.64% |
| O=c1c(I)c(O)cc(-c2ccccc2)n1-c1ccccc1 | -1.06% |
| O=C1C(c2c[nH]c3ccccc23)CC(c2ccccc2)=NN1Cc1ccccc1 (centres unmarked) | -1.8% |
| CC1(C)Cc2c(ccc3ccccc23)C2=CC(=O)C(=O)N21 | -0.13% |
| CC(C)NC(=O)CSc1nc(-c2ccc(F)cc2)cc(C(F)(F)F)n1 | 2.46% |
| O=C(Cn1cccc1C(=O)c1ccccc1)NC1CCN(Cc2ccccc2)CC1 | -0.522% |
| CCN(CC)c1ccc(NC(=O)COc2ccccc2OC)cc1 | 1.86% |

| SMILES | % Inhibition @ 10 uM |
| --- | --- |
| CN(Cc1ccccc1)C(=O)C1CCCN(c2ncnc3c2sc2cccc(F)c23)C1 (centres unmarked) | 4.22% |
| O=C1CC(NCC2CCCCC2)C(=O)N1c1ccc(Cl)cc1 (centres unmarked) | -4.5% |
| Cc1nnc(NC(=O)CSc2nnc(Cc3cccn3C)n2-c2ccc(Cl)cc2)s1 | 3.75% |
| CCCN(CCC)CCCNC(=O)c1cnn2c(C)c(Cc3ccccc3)c(C)nc12 | 1.16% |
| COc1ccc(/C=C2/SC(N3CCCCC3)=NC2=O)c(OC)c1 | 4.74% |
| CC(C)C[C@H](NC(=O)OCc1ccccc1)C(=O)NC(C#N)c1cccs1 (some centres unmarked) | -1.83% |
| Cc1ccc(C2C=C(c3ccc(Cl)cc3)Nc3nc(N4C(=O)C5CC=CCC5C4=O)nn32)cc1 (centres unmarked) | -2.9% |
| O=C(Nc1ccon1)C(Sc1ccccc1)c1ccccc1 (centres unmarked) | 3.53% |
| CC(C)Oc1ccc(C(=O)Nc2ccccc2Cl)cc1 | -0.545% |
| CC(CC12CC3CC(CC(C3)C1)C2)NC(=O)C1CCN(c2ncnc3c2nc2n3CCCCC2)CC1 (centres unmarked) | -2.71% |
| Clc1ccc(N2CCN(Cc3ccc(-c4ccccc4)cc3)CC2)cc1 | -3.77% |
| COc1cc2c(cc1OC)C(COc1ccccc1OC)N(C(=O)Cc1ccc(F)cc1)CC2 (centres unmarked) | -3.38% |
| O=C1C2C3CCC(C3)C2C(=O)N1Cc1ccccc1 (centres unmarked) | 4.37% |
| Cc1ccc(OCC(O)CN2CCN(Cc3ccc4c(c3)OCO4)CC2)c(C)c1 (centres unmarked) | -6.36% |
| COc1ccc(S(=O)(=O)NC2=NC(=O)/C(=C\c3cccnc3)S2)cc1 | 25.7% |
| CCCCNC(=O)CCn1nc(-c2ccccc2)ccc1=O | -0.0542% |
| CCC(CC)NC(=O)c1csc2c1CCCC2 | -10.4% |
| Cn1c(=O)[nH]c(=O)c2c1nc(N1CCNCC1)n2Cc1ccccc1Cl | -9.66% |
| COc1ccc(OC)c(/C=C2/SC(=O)NC2=O)c1 | 24.6% |
| COc1ccc(CCNc2ncnc3sc4c(c23)CCC4)cc1OC | -3.97% |
| CCOc1ccc2nc(NC(=O)c3[nH]c(C)c(C(C)=O)c3C)sc2c1 | 5.88% |
| CCN(Cc1ccccc1)C(=O)CSc1nc2ncccc2o1 | 3.14% |
| CC1(C)CC(NC(=O)c2ccco2)CC(C)(C)N1 | 2.86% |
| CNS(=O)(=O)c1cnccc1N1CCN(c2cccc(C(F)(F)F)c2)CC1 | -3.92% |
| O=C1NC(=O)C(=Cc2ccc(N3CCOCC3)c([N+](=O)[O-])c2)C(=O)N1 | 2.76% |
